Results published in paper PMC3688683, “The N-Terminal Domains of Vps3 and Vps8 Are Critical for Localization and Function of the CORVET Tethering Complex on Endosomes” (PLoS ONE, 2013).
No constants are given. Whether binding was seen depends on the method and setting. Binding seen in cells or lysates may run through a third protein. Some entries that bind do so weakly or less than the wild type. Tags and fused reporters may be left off the sequences shown.

By UniProt entry, the sequences of proteins in these tests, tags left out.
UniProt P12868: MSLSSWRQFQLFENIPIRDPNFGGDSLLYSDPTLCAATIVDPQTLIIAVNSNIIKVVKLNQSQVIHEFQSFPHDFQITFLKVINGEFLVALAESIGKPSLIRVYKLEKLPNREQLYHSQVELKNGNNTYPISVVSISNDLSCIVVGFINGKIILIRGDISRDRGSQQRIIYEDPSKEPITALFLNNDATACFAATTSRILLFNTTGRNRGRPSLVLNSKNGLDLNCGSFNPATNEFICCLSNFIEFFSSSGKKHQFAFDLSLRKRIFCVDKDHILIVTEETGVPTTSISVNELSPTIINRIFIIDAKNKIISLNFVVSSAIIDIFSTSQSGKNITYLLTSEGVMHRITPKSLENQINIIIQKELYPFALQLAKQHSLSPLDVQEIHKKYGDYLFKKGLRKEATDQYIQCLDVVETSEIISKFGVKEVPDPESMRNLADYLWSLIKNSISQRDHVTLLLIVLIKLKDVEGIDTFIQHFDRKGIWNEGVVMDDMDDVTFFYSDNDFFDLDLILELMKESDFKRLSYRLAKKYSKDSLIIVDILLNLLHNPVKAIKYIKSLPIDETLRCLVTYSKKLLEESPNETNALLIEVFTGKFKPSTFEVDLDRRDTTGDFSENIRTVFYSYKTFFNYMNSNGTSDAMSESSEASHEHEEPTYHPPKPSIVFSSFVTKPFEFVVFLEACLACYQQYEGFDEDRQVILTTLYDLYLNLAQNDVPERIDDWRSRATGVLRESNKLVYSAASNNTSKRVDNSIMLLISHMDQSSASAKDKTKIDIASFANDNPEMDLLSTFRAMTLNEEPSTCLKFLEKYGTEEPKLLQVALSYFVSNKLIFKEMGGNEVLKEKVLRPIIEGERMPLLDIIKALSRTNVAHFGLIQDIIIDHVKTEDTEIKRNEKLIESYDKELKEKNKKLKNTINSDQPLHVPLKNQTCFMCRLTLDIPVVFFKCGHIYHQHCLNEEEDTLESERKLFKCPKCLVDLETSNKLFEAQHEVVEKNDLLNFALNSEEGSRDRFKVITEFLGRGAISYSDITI

Molecular target: T1, Vps3-TAP (full-length Vps3, C-terminal TAP tag) (yeast (genomic locus of BY4741/BY4733 strains)) (UniProt P23643)
T1 sequence: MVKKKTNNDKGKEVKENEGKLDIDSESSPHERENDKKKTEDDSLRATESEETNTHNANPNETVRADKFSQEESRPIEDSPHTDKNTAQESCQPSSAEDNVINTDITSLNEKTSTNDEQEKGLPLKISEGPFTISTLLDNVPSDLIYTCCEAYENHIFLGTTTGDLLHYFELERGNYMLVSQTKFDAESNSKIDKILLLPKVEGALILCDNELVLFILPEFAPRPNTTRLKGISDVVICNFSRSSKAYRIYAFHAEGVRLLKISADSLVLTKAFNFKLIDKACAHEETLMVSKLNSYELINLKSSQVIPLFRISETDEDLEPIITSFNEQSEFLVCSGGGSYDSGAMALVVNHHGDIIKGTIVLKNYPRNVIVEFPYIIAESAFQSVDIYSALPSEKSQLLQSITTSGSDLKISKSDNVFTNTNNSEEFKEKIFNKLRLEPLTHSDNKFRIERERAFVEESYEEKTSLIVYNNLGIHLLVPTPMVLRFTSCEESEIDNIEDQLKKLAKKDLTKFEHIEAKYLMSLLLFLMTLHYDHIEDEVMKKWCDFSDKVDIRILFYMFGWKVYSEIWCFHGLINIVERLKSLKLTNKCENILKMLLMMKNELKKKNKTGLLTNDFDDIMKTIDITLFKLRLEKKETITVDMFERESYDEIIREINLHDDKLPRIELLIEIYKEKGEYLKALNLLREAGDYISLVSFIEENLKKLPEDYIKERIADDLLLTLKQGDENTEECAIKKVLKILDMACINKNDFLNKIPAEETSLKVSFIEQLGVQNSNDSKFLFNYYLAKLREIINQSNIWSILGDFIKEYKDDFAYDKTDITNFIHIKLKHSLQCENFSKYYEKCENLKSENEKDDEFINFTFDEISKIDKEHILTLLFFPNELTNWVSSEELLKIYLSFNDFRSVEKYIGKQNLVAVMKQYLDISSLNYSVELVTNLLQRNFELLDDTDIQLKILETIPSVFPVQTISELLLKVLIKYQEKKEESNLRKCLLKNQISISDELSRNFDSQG
Assay: co-IP; small-scale TAP purification: C-terminally TAP-tagged Vps8 or Vps3 (full-length or truncated) captured from yeast lysate (50 mM HEPES/KOH pH 7.4, 300 mM NaCl, 0.15% NP-40, 2 mM MgCl2, 1 mM DTT) on IgG beads, 1.5 h at 4°C; eluted with glycine pH 2.5 or TEV protease; Western blot with anti-Cbp, anti-HA, anti-Vps11; also with overproduced Vps8ΔN and from vps21Δ and vps21Δ ypt52Δ ypt53Δ ypt7Δ strains

Substance: Vps11 (from UniProt P12868 1-1029)
- binding: binds
